In the RNAGym collection of RNA variant scans (doi:10.1073/pnas.2313332121):
Variants at the floor of the assay are shown more often than the library holds them.

B1: TPR 5TU (parent)
chain: GGAUCUUCUCGAUCUAACAAAAAAGACAAAUCUGCCACAAAGCUUGAGAGCAUCUUCGGAUGCAGAGGCGGCAGCCUUCGGUGGCGCGAUAGCGCCAACGUUCUCAACUAUGACACGCAAAACGCGUGCUCCGUUGAAUGGAGUUUAUCAUG

Variants of: B1
Test: polymerase ribozyme fitness, log enrichment relative to wild type (log ratio); higher = more active; in vitro selection for triplet polymerase activity
Summary of the method: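 Both subunits of a heterodimeric triplet polymerase ribozyme were given their own mutant library, built by PCR and transcribed. Each library was annealed with a biotinylated primer, the partner subunit and triplets, incubated frozen at −7 °C, and its extended constructs gel-excised, captured on streptavidin beads and amplified by RT-PCR, all in one round done in triplicate. Fitness is the logarithm of genotype enrichment relative to wild-type enrichment, with replicates averaged by inverse-variance weighting. That logarithm is base 2, and Illumina-sequenced genotypes needed ≥10 input reads and ≥1 read per output.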
For GGAUCUUCUCGAUCUAUCAAAAAAGACAAAUCUGCCACAAAGCUUGAGAGCAUCUUCGGAUGCAGAGGCGGCAGCCUUCGGGGCCGCGAUAGCGCCAACGUUCUCAACUGUGACACGCUAAACGCGUGCUCCGUUGAACGGAGUUUAUCAUG [A17U U82G G84C A110G A119U U139C], the “polymerase ribozyme fitness (log ratio)” value was no more than -4.2.
With GGAUCUUCUCGAUCUAUCAAAAAAGACAAAUCUGCCACAAAGCUUGAGAGCAUCUUCGGAUGCAGAGGCGGCAGCCUUCGGUGGCGCGAGAGAGCCAACGUUCUCAGCUAUGACACGCAAAACGCGUGCUCCGUUGAAUGGAGUUUAUCAUG [A17U U90G C93A A107G] the “polymerase ribozyme fitness (log ratio)” value was no more than -4.2.
For GGAUCUUCUCGAUCUAAACAAAAAGACAAAUCUGCCACAAAGCAUGAGAGCAUCUUCGGAUGCAGAGGCGGCAGCCUUCGGUGUCGCGAUAGCGCCAAGGUUCUCAACUAUGACACGCAAAACGCGUGCUCCGUUGAAUGGAGUUUAUCAUG [C18A A19C U44A G84U C99G], the “polymerase ribozyme fitness (log ratio)” value was no more than -4.2.
For GGAUCUUCUCGAUCUAAAUAAAAAGACAAAUCUGCCACAAAGCUUGAGAGCAUCUUCGGAUGCAGAGGCGGCAGCAUUCGGUGGUGCGAUAGCGCCAAUGUUCGCAACUGUGACACGCAAAACGCGUGCUCCGUUGAAUGGACUUUAUCAUG [C18A A19U C76A C85U C99U U104G A110G G143C], the “polymerase ribozyme fitness (log ratio)” value was no more than -4.2.
With GGAUCUUCUCGAUCUAAAUAAAAAGACAAAUCUGCCACAAAGCUUGAGACCUUCUUCGGAUGCAGAGGCGGCAGCCUUCGGUGGCGCGAUAGUGCCAACGUUCUCAACUAUGACACGCAAAACGCGUGCUCCGUUGAAUGGAGUUUAUCAUG [C18A A19U G50C A52U C93U] the “polymerase ribozyme fitness (log ratio)” value was no more than -4.2.
For GGAUCUUCUCGAUCUAAAAUAAAAGACAAAUCUGCCACAAAGCUUGAGAGCAUCUUCGGAUGCAGAGGAGGCAGCCUUCGGUGGCGCUAUAGGGCCAAGGUUCUCAACUAAGACACGCAAAACACGUGCUCCGUUGAAUCGAGUUUAUCAUG [C18A A20U C69A G88U C93G C99G U111A G124A G140C], the “polymerase ribozyme fitness (log ratio)” value was no more than -4.2.
With GGAUCUUCUCGAUCUAAAAACAAAGACAAAUCUGCCUCAAAGCUUGAUAGCAUCUUCGGAUGCAGAGGCGGCAGCCUUCGGUAGCGCGAUAGCGCCAACGUUCUCAACUAUGACACGCAAAACGCGUACUCCGUUGAAUGGAGUUUAUCAUG [C18A A21C A37U G48U G83A G128A] the “polymerase ribozyme fitness (log ratio)” value was no more than -4.2.
For GGAUCUUCUCGAUCUAAAAAGAAAGACAAAUCGGCAACAAAGCUUGAGAACAACUUCGGAUGCAGAGGCGGCAGCCUUCGGUGGCGCGAUUACGCCAACGUUCUCAACUAUGUCACGCAAAACGCGUGCUCCAUUGAAUGGAGUUUAUCAUG [C18A A21G U33G C36A G50A U53A A91U G92A A113U G133A], the “polymerase ribozyme fitness (log ratio)” value was no more than -4.2.
In the case of GGAUCUUCUCGAUCUAAAAAUAAAGACAACUCUGCCACAAAGCUUGAGAGCAUUUUCGGAUGCAGAGGGGGCAGCAUUCGGUGGCGAGAUAGCGCCAACGUUCUCAACUAUGACACGCAAAACGCGUGCUCCGUUGAAUCGAGUUUAUCAUG [C18A A21U A30C C54U C69G C76A C87A G140C], the “polymerase ribozyme fitness (log ratio)” value is reported as no more than -4.2.
With GGAUCUUCUCGAUCUAAAAAACAAGACAAAUCUGCCACAAAGCUUGAAAGCAUCUUCGGAUGCAGAGGCGGCAGCCUUCGGUGGCGCUAUAGCGCCAACGUUCUCAACUAUGACACGCAAAACGCGUGCUCCGUUGAAUGGAUUUUAUCAUG [C18A A22C G48A G88U G143U] the “polymerase ribozyme fitness (log ratio)” value was no more than -4.2.
With GGAUCUUCUCGAUCUAAAAAACAAGACAAAUCUGCCACAAAGCUUGAGAGCAUCUUCGGAUGCAGAGGCGGCAGCCUUCGGUCGCGCGAUAGCGCCAACGUUCUCAACUAUGACACGCAAAACGCGUGCUCCGUUGAAUGGAUUUUAUCAUG [C18A A22C G83C G143U] the “polymerase ribozyme fitness (log ratio)” value was no more than -4.2.
In the case of GGAUCUUCUCGAUCUAAAAAAACAGACAAAUCUGCCACAAAGCUUGAGCGCAUCUUCGGAUGCAGAGGUGGCAGCCUGCGGUGGCGCAAUAGCGCUAACGUUCUCAACUAUGACACGCAAAACGCGUGCUCCGUUGAAUGGAGUUUAUAAUG [C18A A23C A49C C69U U78G G88A C96U C149A], the “polymerase ribozyme fitness (log ratio)” value is reported as no more than -4.2.
With GGAUCUUCUCGAUCUAAAAAAAACGACAAAUCUGUCACAAAGCUUGAGAGCAUCUUCGGAUGCAGAGGCGGCAGCCUUCGGUGGCGCGAUAUCGCCAACGUUCUCAACUAUGACCCGCAAAACGCGUGCUCCGUUGAAUGGAGUUUAUCAUG [C18A A24C C35U G92U A115C] the “polymerase ribozyme fitness (log ratio)” value was no more than -4.2.
In the case of GGAUCUUCUCGAUCUAAAAAAAAAGACGACUCUGCCACAAAGCUUAAGAGCAUCUUCGGAUGCAGAGGCGGCACCCUUCGGUGGCGCGAUAGCGCCAACGUUCUCAACUAUGACACGCAAAACGCGUGCUCCGUUGAAUGGAGUUUAUCAUG [C18A A28G A30C G46A G74C], the “polymerase ribozyme fitness (log ratio)” value is reported as no more than -4.2.
In the case of GGAUCUUCUCGAUCUAAAAAAAAAGACAUAUCUGCCACAAAGCUUGAGAGCAUCUUCGGAUGCAGAGGCGGCAGCCUUCGGUGGCGCGAUAUCGCCAACGUUCUCAACUAUGACACGCAAAACGCGUGCUGCGUUGAAUGGAGUUUAUCAUG [C18A A29U G92U C131G], the “polymerase ribozyme fitness (log ratio)” value is reported as no more than -4.2.
For GGAUCUUCUCGAUCUAAAAAAAAAGACAAAUCUGCCACAAAGCUUGAGAGCAUCUUCGGUUGCAGAGGCGGCAGCCUUCGGUGGUGCGAUAGCGCCAACGUUCUCAACUAUGACACGCAAAACGCGUGCUCCGUUGAAUGGAGUUUAGCAUG [C18A A60U C85U U148G], the “polymerase ribozyme fitness (log ratio)” value was no more than -4.2.
For GGAUCUUCUCGAUCUAAAAAAAAAGACAAAUUUGCCACAAAGCUUGAGAGCUUCUUCGGAUGCAGAGGCGGCAGCCUUCGGUGGCGGGAUAGCGCCAACGUUCUAAACUAUGACACGCAAAACGCGUGCUCCGUAGAAUGGAGUUUAUCAUG [C18A C32U A52U C87G C105A U135A], the “polymerase ribozyme fitness (log ratio)” value was no more than -4.2.
For GGAUCUUCUCGAUCUAAAAAAAAAGACAAAUCUGCAACAAAGCUUGAGAGCAUCUUCGGAUGCAGAGGCGGCAGCCUUCGGUGGCGCGAUAGCGUAAACGUUCUCAACUAUGACACGCAAAACGCGUGCUCCGUUGAAUGGGGUUUAUCAUU [C18A C36A C95U C96A A142G G152U], the “polymerase ribozyme fitness (log ratio)” value was no more than -4.2.
In the case of GGAUCUUCUCGAUCUAAAAAAAAAGACAAAUCUGCCACAAAGCUUGAGAGCAUCUACGGAUGCAGAGGCGGCAGCCUUCGGUGGGGCGAUAGCGCAAACGUUCUCAACUAUGACACGCAAAACGCGUGCUCCGUUGAAUGGAGUUUAUCAUG [C18A U56A C85G C96A], the “polymerase ribozyme fitness (log ratio)” value is reported as -3.54.
